Data on 96 compounds can be found in PubChem BioAssay AID485344 (National Center for Advancing Translational Sciences (NCATS), 2010).

In all, about 340,000 compounds went through this assay and about 6,900 (2%) were called active. No stated cut-off is given here; in the data, active means inhibition above about 30%; inactive means below that, where a call was filed. This is a selection; strong and weak results do not stand in their true shares. The source gives no active or inactive call for entries shown without one.

UniProt P14416, sequence (P14416 whole entry, looked up): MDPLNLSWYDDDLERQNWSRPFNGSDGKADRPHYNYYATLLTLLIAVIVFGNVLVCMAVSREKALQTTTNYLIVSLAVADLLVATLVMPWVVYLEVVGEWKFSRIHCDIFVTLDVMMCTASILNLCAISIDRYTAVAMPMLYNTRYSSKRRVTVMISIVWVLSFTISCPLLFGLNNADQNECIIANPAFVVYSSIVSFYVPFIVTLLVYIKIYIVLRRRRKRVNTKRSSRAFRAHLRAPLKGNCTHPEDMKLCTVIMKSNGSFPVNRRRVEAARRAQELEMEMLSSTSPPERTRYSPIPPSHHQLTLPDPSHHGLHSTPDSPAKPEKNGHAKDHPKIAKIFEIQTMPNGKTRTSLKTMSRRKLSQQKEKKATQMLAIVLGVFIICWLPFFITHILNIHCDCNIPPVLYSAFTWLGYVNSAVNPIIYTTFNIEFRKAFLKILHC

The target of the assay is D(2) dopamine receptor (Homo sapiens) (UniProt P14416). Put plainly: HTS Assay for Allosteric Antagonists of the Human D2 Dopamine Receptor: Primary Screen for Antagonists. Further: 0% is about no effect. The note with it: HEK293 TREx D2 cells, calcium flux, dopamine EC80; at 10 µM; stronger effect = higher value. A digest of the protocol:
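Calcium mobilization kinetics were recorded at 1 s intervals in tetracycline-induced HEK293 T-REx D2 cells, first for 180 s after compound addition and then 180 s after EC80 dopamine.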
As to `CCC(C(=O)NCc1ccc(OC)c(OC)c1)n1nc(C)c2c(C)n(-c3ccc(C)cc3)nc2c1=O` (stereo unspecified), the inhibition was -7.18%. The value for `CCOC(=O)c1c(NC(=O)c2cc3nc(-c4ccc(Br)cc4)cc(C(F)(F)F)n3n2)sc(C(C)=O)c1C` was 17.4%.

In the case of `CCn1cc(C(=O)NCCCOC)c(=O)c2cc(S(=O)(=O)N3CCCC3)ccc21`, the inhibition is -13.1%.

`Cc1cccc(C(=O)n2nc(-c3cccnc3)nc2NCc2ccccc2)c1`: the inhibition was -7.19%.

`Cc1ccc(C(=O)NCCc2ccc(S(N)(=O)=O)cc2)cc1-n1cnc2cccnc21`: the inhibition worked out at 6.36%.

Regarding `O=C(CCCCn1c(=O)c2ccccc2n(CC(=O)Nc2ccc(F)cc2F)c1=O)NCCc1ccccc1`, the inhibition came out at 8.66%. The value for `COC(=O)c1c(NC(=O)Cc2coc3ccc(C(C)C)cc23)sc2c1CCC2` was -10.2%; that for `O=S(=O)(NCC(c1ccco1)S(=O)(=O)c1cccs1)c1ccc(Cl)cc1` (stereo unspecified) was 1.82%; that for `O=c1oc2c3c(ccc2c2ccccc12)OCN(Cc1ccccc1Cl)C3` was 17.3%. The value for `CCOc1ccc(C(=O)c2oc3ccccc3c2NC(=O)c2cc(-c3ccc(Cl)cc3)on2)cc1` was -2.03%; that for `COC(=O)c1sccc1S(=O)(=O)N(CC(=O)Nc1ccccc1F)c1ccccc1` was -2.16%. The value for `CC(=O)c1cccc(NS(=O)(=O)c2cc(-c3cnc(C4CC4)o3)ccc2C)c1` was -2.02%; that for `CCc1nn(CC(=O)N(C)Cc2ccccc2)c(=O)c2cc3sccc3n12` was -19.3%; that for `CCc1nn(C(CC)C(=O)NCCCN2CC(C)CC(C)C2)c(=O)c2cc3oc(C)cc3n12` (stereo unspecified) was active: 63.7%.

Regarding `COc1ccc(Cl)cc1NC(=O)NCC1CCN(Cc2cc(C)ccc2C)CC1`, the inhibition is active: 54.6%. The value for `COc1cc(Cl)c(NS(=O)(=O)c2cc(-c3cc(C)no3)ccc2OC)c(OC)c1` was -13.3%. The value for `COc1ccc(-n2c(SCC(=O)c3ccccc3)nc3c([nH]c4ccccc43)c2=O)cc1` was 6.85%; that for `CCOc1ccccc1NC(=O)C1CCN(S(=O)(=O)c2ccc3c(c2)CCCN3C(C)=O)CC1` was 14.3%; that for `COc1ccc2nc(SC)c(C#N)cc2c1` was active: 55%. The value for `CCC(=O)N1c2ccccc2CC1C(=O)NCc1ccc(N(C)C)cc1` (stereo unspecified) was 10.5%; that for `CC(=O)c1ccc(NC(=O)c2ccc(-n3cnnc3)cc2)cc1` was -9.52%; that for `Cc1ccc(N=C2NC(=O)CC(C(=O)Nc3cc(C(F)(F)F)ccc3Cl)S2)cc1` (stereo unspecified) was -13.1%. As to `O=S(=O)(c1ccc(Cl)cc1)c1nnn2c1nc(NCc1ccc3c(c1)OCO3)c1sccc12`, the inhibition is -17.1%.

For `CCOc1ccc(S(=O)(=O)Nc2cc3c(C(=O)OC)c(COC)oc3c3ccccc23)cc1`, the inhibition stood at 12%. The value for `COc1ccc(CN2CCC(CO)(Cc3ccccc3C(F)(F)F)CC2)c(F)c1` was active: 43.2%; that for `COc1ccc(S(=O)(=O)N(CC(=O)Nc2cc(Cl)ccc2C)Cc2ccccc2)cc1OC` was -6.65%. The value for `Cc1ccc(-n2nc(C)c3c(C)cc(=O)n(CC(=O)NC(C)c4ccccc4)c32)cc1` (stereo unspecified) was 9.3%; that for `CCOc1cc(-c2ccc(OC(=O)c3ccc(OC)cc3)c(OC)c2)cc(=O)c2c(C)oc(C)c12` was -10.1%; that for `CCn1nc(C)c2c(-c3ccccc3)cc(=O)n(C(C)C(=O)NCCc3ccc(OC)c(OC)c3)c21` (stereo unspecified) was -0.234%.

Regarding `COc1ccc(S(=O)(=O)NCC2CCCO2)cc1NC(=O)c1ccccc1F` (stereo unspecified), the inhibition is active: 35.6%.

For the compound `CC(=O)Nc1ccc(NC(=O)C(Cc2ccccc2)NS(=O)(=O)c2ccc3c(c2)oc(=O)n3C)cc1` (stereo unspecified), the inhibition is -2.42%. The value for `CCOC(=O)CC(NC(=O)CCc1c(C)nc2c(c1C)c(=O)n(C)c(=O)n2C)c1ccc(OCC)c(OC)c1` (stereo unspecified) was 10.9%; that for `CC(C)c1ccc(NS(=O)(=O)c2ccc3[nH]cc(C(=O)NCCc4ccccc4)c(=O)c3c2)cc1` was -15.5%. The value for `CCOC(=O)c1cc(-c2ccc(F)cc2)n(CCC(=O)Nc2nc3ccc(OC)cc3s2)c1C` was -22.1%; that for `Cc1ccc(Cl)cc1N1CCN(S(=O)(=O)c2cc(Br)cc3c2N(C(=O)C2CC2)CC3)CC1` was 4.59%.

In the case of `COc1ccc(-c2nn(-c3ccccc3)cc2C2NC(=O)NC(C)=C2C(=O)OC(C)C)cc1Cl` (stereo unspecified), the inhibition is 18.3%. The value for `COc1ccc(NCc2cc3cc4c(cc3n(CC(=O)Nc3ccc(C)c(C)c3)c2=O)OCO4)cc1` was 10.1%; that for `Cn1c(=O)oc2cc(S(=O)(=O)CCC(=O)NCCc3ccc(Cl)cc3)ccc21` was 11.4%. The value for `CC(C)(C)OC(=O)N1CCC(c2c(C(=O)N3CCCCC3)cnn2-c2ccccc2Cl)CC1` was 9.8%; that for `COc1ccccc1OCc1nc(C#N)c(NCc2ccc(C)cc2)o1` was 7.93%.

Regarding `Cn1c(=O)c2sccc2n2c(CCCC(=O)NC3CCCCC3)nnc12`, the inhibition was -5.13%. The value for `Cc1cc(C)cc(NC(=O)Cn2c(=O)n(-c3ccc(C)c(C)c3)c(=O)c3oc4ccccc4c32)c1` was -3.25%; that for `COc1ccc(N2CCN(Cc3nc4c(c(=O)n(C)c(=O)n4C)n3C(C)C)CC2)cc1` was 6.12%. The value for `Cc1ccc2nc(CN3CCN(S(=O)(=O)c4ccc(C(C)C)cc4)CC3)oc2c1` was 4.87%; that for `CN(C)CCCn1c(-c2ccc(Cl)cc2)csc1=Nc1ccccc1` was 12.4%; that for `COC(=O)c1ccc(NC(=O)CCn2cnnn2)c(C)c1` was 10.4%. Regarding `COc1ccc2cc(CNc3ccc(C)cc3)c(=O)n(CC(=O)Nc3ccc(C)cc3Cl)c2c1`, the inhibition is -4.98%.

Take `CCCCOc1ccccc1C(=O)N(Cc1sccc1C)C1CCS(=O)(=O)C1` (stereo unspecified): the inhibition is -8.52%. The value for `CCOc1ccc(NC(=O)CSc2c3c(nc4ccccc24)CCCC3)cc1` was 7.97%.

Turning to `CCN1CCSc2ccc(C(=O)NCc3cccc(Br)c3)cc21`, the inhibition was -1.67%. The value for `CC(C)(C)c1ccc(C(=O)N2CCCC(c3nc4c(nnn4Cc4cccc(F)c4)c(=O)[nH]3)C2)cc1` (stereo unspecified) was 3.1%; that for `Cc1ccc(-c2cn3nc(N4CCCC(C(=O)NCc5ccc(F)cc5)C4)sc3n2)cc1` (stereo unspecified) was -7.07%.

For `CCc1ccc(C(=O)CC2(O)C(=O)N(Cc3ccc(C)cc3)c3ccccc32)cc1` (stereo unspecified), the inhibition is 0.239%. As for `Cc1cccc(OCc2cc(=O)n3c4c(sc3n2)CCCC4)c1C`, the inhibition stood at 23.5%. The value for `CCc1ccccc1NC(=O)c1cc2nc(-c3ccc(Br)cc3)cc(C(F)(F)F)n2n1` was -7.49%; that for `CC(C)c1nc2ccc(C(=O)NCc3ccccc3Br)cc2o1` was 9.35%; that for `CC(C)OCCCN1C(=O)c2[nH]nc(-c3ccccc3O)c2C1c1ccccc1F` (stereo unspecified) was -1.82%. The value for `COc1ccc(CNC(=O)c2sc3nc[nH]c(=O)c3c2C)cc1` was 8.92%; that for `CCOc1ccccc1N1CC(c2nc3ccccc3n2CCCOc2ccc(OC)cc2)CC1=O` (stereo unspecified) was 10.8%. The value for `Cc1noc(-c2ccccc2OCC(=O)Nc2ccccc2[N+](=O)[O-])n1` was 1.6%. For `COc1cccc(CNC(=O)c2ccc(-n3c(C)cc4c3CCCC4)cc2)c1`, the inhibition was 0.608%. On to `O=C(NCC1CCN(Cc2cccc(Cl)c2)CC1)Nc1ccc(F)c(Cl)c1`, for which the inhibition turned out to be 20.6%.

For the compound `O=C(c1ccco1)N(Cc1cccs1)c1ccc(F)cc1`, the inhibition was -0.254%.

Regarding `Cc1cc(O)c(C(c2ccccc2)N2CCN(c3ccc(F)cc3)CC2)c(=O)n1Cc1ccco1` (stereo unspecified), the inhibition turned out to be 11.4%.

Take `Cc1ccc(-n2c(CCC(=O)O)ccc2-c2cccs2)cc1Cl`: the inhibition is -6.41%. In the case of `CCOc1ccc2c(c1)c(=O)c(C(=O)c1ccc(CC)cc1)cn2CC(=O)Nc1cccc(Cl)c1`, the inhibition was 3.24%. The value for `Cc1cc(C)c(Cn2c(=O)n(CCC(=O)NCc3ccc4c(c3)OCO4)c(=O)c3ccccc32)c(C)c1` was 12%; that for `CCOc1ccc(OCC)c(NC(=O)C2CCN(S(=O)(=O)c3ccc4c(c3)CC(C)N4C(C)=O)CC2)c1` (stereo unspecified) was 3.27%; that for `Cc1ccc(N2C(=O)[C@@H]3CSC(c4ccc(Cl)cc4)N3C2=O)cc1` (stereo partly specified) was -13.9%.

For the compound `Cc1ccc2occ(CC(=O)N(Cc3ccc(Cl)cc3)Cc3ccco3)c2c1`, the inhibition is -1.11%. The value for `CCc1ccccc1NC(=O)COCc1cc(-c2ccco2)on1` was 7.54%; that for `CCCn1c(Nc2ccccc2C)nc2ccccc21` was active: 42.5%. The value for `COc1ccccc1S(=O)(=O)Cc1ccc(C(=O)N2CCN(c3cc(Cl)ccc3C)CC2)o1` was 4.33%; that for `COC(=O)c1c(-c2ccc(Cl)cc2)noc1N1CCN(c2ccccc2OC)CC1` was 14.5%. The value for `COc1ccc(CNc2nc(-c3ccc(Cl)cc3)cc(C(F)(F)F)n2)cc1` was -22.3%.

Take `O=C(CCCCCN1C(=O)CCC1=O)Nc1ncn[nH]1`: the inhibition was active: 45.4%. The value for `CCCCn1c(CCCNC(=O)c2cccc(C)c2)nc2ccccc21` was -6.84%. The value for `Cc1ccc2oc(-c3cccc(NC(=O)c4cccc5c(Cl)cccc45)c3)nc2c1` was -15.9%; that for `Cc1cccc(NC(=O)c2ccc(CN3CC(=O)N4CCCCC4C3=O)cc2)c1C` (stereo unspecified) was 6.69%; that for `CCC(C)Nc1nc2c(c(=O)[nH]c(=O)n2C)n1Cc1ccc(F)cc1` (stereo unspecified) was -3.24%. For `Cc1ccccc1Nc1c(-c2ccc(N3CCOCC3)cc2)nc2cccc(C)n12`, the inhibition is -1.88%. The value for `CCOc1ccccc1CNC(=O)c1ccc2nc(N3CCC(C)CC3)sc2c1` was -3.98%. The value for `Cc1ccc(-n2ncc3c(NCCc4ccc(S(N)(=O)=O)cc4)ncnc32)cc1` was -2.82%; that for `CCCCOC(=O)CSc1ncnc2sc3c(c12)CCC(C)C3` (stereo unspecified) was 6.16%; that for `CCc1ccc(CN2CCN(C(=O)c3ccco3)CC2)cc1` was active: 83.3%. As to `OCC(O)CN1CCN(c2ccccc2)CC1` (stereo unspecified), the inhibition was active: 58.9%. Regarding `C=Cc1ccc(Cn2c(C(=O)O)c(CNCCc3ccco3)c3ccc(C)cc32)cc1`, the inhibition turned out to be 12.1%.

Consider `COC(=O)c1cc2sccc2n1Cc1nc(-c2cccc(Cl)c2)oc1C`, for which the inhibition came out at 1.27%. Turning to `CC1=C(c2ccc(C)cc2)S(=O)(=O)NC1=NCc1ccccc1Cl`, the inhibition was -5.51%.

Consider `COc1ccc(CNCc2ccc(C(=O)O)s2)cc1`, for which the inhibition was -3.23%. As for `CCOc1ccccc1NC(=O)CSc1ncc2c(n1)-c1ccccc1N(CC)S2(=O)=O`, the inhibition is -11.3%. As for `Cc1cccc(NC(=O)C(=O)NCCCN2CCOCC2)c1`, the inhibition was found to be 16.3%.

On to `COc1ccc(NC(=O)c2nc(SCc3ccc(F)cc3)ncc2Cl)cc1`, for which the inhibition is -1.19%. The value for `CCOc1ccc(NC(=O)c2sc(-n3nc(C)c(CCC(C)C)c3C)nc2C)cc1` was -4.48%. The value for `Cc1cccc(C)c1Nc1c(-c2ccccn2)nc2ccc(Cl)cn12` was 1.02%; that for `Cc1cccc(OC(=O)c2snnc2C)c1` was -11.6%.
